The campaign covered roughly 150,000 compounds. About 540 (0.36%) showed an effect of 50% or more. Some of the results follow.

The assay has as its system Plasmodium falciparum. As to the kind of experiment: Primary screen in NF54 nanoGlo assay, in single point, at 2uM, 72h; a lower Z score goes with more inhibition. In kind it is functional, Erythrocyte. As to conditions: timepoint 72 hour.
On to `CCOc1cccc(Cn2c(=O)c3sccc3n(CC(=O)Nc3nccs3)c2=O)c1`, for which the % Inhibition (commonly the relative decrease from the control value, in per cent) was 26% and the Z score is -2.88.
The like results for `CC[C@H](C)[C@@H]1NC(=O)N([C@H]2C[C@H](c3ccccc3C)C2)C1=O` were, in that order, -15% and 1.65.
In the same order, the values of `CCC(=O)Nc1cc(C(=O)N(CC)C[C@H]2CCCO2)c2c(c1)nc(Cc1ccccc1)n2C` are -7% and 1.29.
The like results for `Cc1ccc(S(=O)(=O)N2CCN(S(C)(=O)=O)C2)cc1` were, in that order, 36% and -4.08.
Regarding `Cc1n[nH]c2ncc(NC(=O)c3scnc3C(C)(C)C)cc12`, the “% Inhibition” value was -12% and the Z score was determined as 1.43.
Consider `NC(=O)NC(=O)C1CCC(Nc2nccs2)CC1` (stereo unspecified), for which the “% Inhibition” value was -3% and the Z score is 0.31.
The like results for `O=C1CCCN1c1ccc(S(=O)(=O)N2CCc3[nH]c4ccccc4c3C2)cc1` were, in that order, -8% and 0.73.
Take `CCN(CC)c1cc(-n2nc(C(F)(F)F)cc2-c2ccccc2)ncn1`: the “% Inhibition” value is listed as 28% and the Z score is -3.15.
The like results for `CCc1ccc(NC(=O)N2CCC(c3ccc4cccnc4n3)CC2)cc1OC` were, in that order, 2% and -0.31.
In the same order, the values of `Cc1ccc(Cl)cc1NC(=O)c1cc(C2CC2)nc2onc(C3CC3)c12` are 5% and -0.78.
In the same order, the values of `Cc1ccc(C(=O)N2CCO[C@@H](CC3CCCCC3)C2)c(=O)[nH]1` are 3% and -0.54.
In the case of `C=CCCC(=O)Nc1cccc(-c2ncc(C)o2)c1`, the “% Inhibition” value was -14% and the Z score came to 1.34.
As for `Cc1ccc(OCC(N)=O)c(-c2cccc([C@H](C)N3CCCC3)c2)c1`, the “% Inhibition” value was 1% and the Z score is reported as -0.27.
The like results for `CC[C@H]1CCCCN1C(=O)c1cnc2nc(C)ccc2c1Nc1ccc2c(c1)OCO2` were, in that order, -9% and 1.48.
In the same order, the values of `O=C(NC[C@H](O)CN1CCCC1)c1conc1-c1ccccc1` are -17% and 2.35.
The like results for `COc1ccc(-c2ccc(=O)n([C@H]3CCc4ccccc4NC3=O)n2)cc1` were, in that order, 31% and -3.48.
Consider `Cc1c(C(=O)N[C@H]2CC[C@@H](CO)C2)nnn1-c1ccc(F)c(F)c1`, for which the “% Inhibition” value is recorded as 35% and the Z score is -3.91.
Consider `CCN1CCN(C(=O)c2ccc(N(C)C)cc2)[C@H]2CS(=O)(=O)C[C@H]21`, for which the “% Inhibition” value is listed as -11% and the Z score stood at 2.11.
The like results for `CCO[C@H]1CN(C(=O)c2cc(C)n(C)c2C)C[C@@H]1O` were, in that order, 0% and -0.03.
Turning to `Cc1ccc(C(=O)N(C)c2cnn(C)c2)c(Br)c1`, the “% Inhibition” value was 2% and the Z score was -0.22.
The like results for `Cc1cnccc1Cn1cc(CN2CC[S+]([O-])CC2)nn1` were, in that order, 6% and -1.17.
The like results for `CC(=O)N1CCC(Cc2ccc(CN(Cc3cccc(F)c3)C3CC3)cc2)CC1` were, in that order, -17% and 3.24.
`Cc1nn(C)c(C)c1OC(=O)OC(C)(C)C`: the “% Inhibition” value is reported as -4% and the Z score is reported as 0.48.
Turning to `CC(C)c1ncc(C(=O)N2CCC[C@H](CCc3ccc(F)cc3F)C2)c(=O)[nH]1`, the “% Inhibition” value is recorded as -13% and the Z score stood at 1.25.
As to `C[C@@H](CNC(=O)C1(C#N)CCCC1)Oc1ccccc1`, the “% Inhibition” value was -6% and the Z score is listed as 0.57.
In the same order, the values of `COC(CN(c1ccccc1)S(=O)(=O)c1ccc(F)cc1)C1CCOC1` (stereo unspecified) are -4% and 0.64.
The like results for `NC(=O)c1nnn(-c2ccc(NC(=O)C(c3ccccc3)c3ccccc3)cc2)n1` were, in that order, -7% and 1.26.
Consider `CC1(C)COCCN1CC1CCOCC1`, for which the “% Inhibition” value stood at 4% and the Z score was -0.45.
As to `COc1ccc(NC(=O)C(=O)c2cccn2Cc2ccc(C)cc2)c(OC)c1`, the “% Inhibition” value was -13% and the Z score is 1.24.
With `CC(C)NC(=O)CC1(CN2Cc3ccccc3C2=O)CCCCC1`, the “% Inhibition” value is reported as -9% and the Z score is reported as 1.32.
`COc1ccc(-c2ccc3c(c2)C(=O)N2CC[C@H](NC(=O)C4CCCC4)[C@H]2C(=O)N3)cc1`: the “% Inhibition” value came out at 31% and the Z score is recorded as -3.55.
In the same order, the values of `CC1=NN(c2ccccc2)C(=O)C12Cc1cc(C(F)(F)F)ccc1N1CCN(c3ncccn3)CC12` (stereo unspecified) are 4% and -0.52.
In the same order, the values of `COCCNC(=O)NCCn1nc(C2CC2)ccc1=O` are -14% and 2.89.
The like results for `O=C(c1ccc2c(c1)OCCO2)N1CCN(Cc2ccccc2)CC1` were, in that order, -6% and 0.72.
With `c1ccc(-c2ccc(-c3nc4nc(-c5ccccc5)c(-c5ccccc5)nn4c3-c3ccccc3)cc2)cc1`, the “% Inhibition” value is -17% and the Z score amounted to 1.82.
With `CC(NS(=O)(=O)c1ccc2c(c1)OCCCO2)C1CCCO1` (stereo unspecified), the “% Inhibition” value is -3% and the Z score turned out to be 0.44.
The like results for `CCC(=O)N1CCc2c(C(=O)NCc3ccc(N4CCN(C)CC4)cc3)cccc21` were, in that order, 2% and -0.19.
The like results for `CC1(C)CC(NC2CCN(C3CCCC3)C2)CO1` (stereo unspecified) were, in that order, 11% and -1.32.
The like results for `CC(C)(C)c1nc([C@H]2CC23CCC3)n(CCO)n1` were, in that order, 0% and 0.01.
For `CC(O)(CNC(=O)C1CC(=O)N(c2ccccc2Br)C1)CN1CCOCC1` (stereo unspecified), the “% Inhibition” value was -3% and the Z score is given as 0.47.
For `O=C(Nc1ccccc1OC[C@H]1CCCCO1)N1CCOCC1`, the “% Inhibition” value is given as 34% and the Z score is -0.78.
Turning to `Cc1ncc(CNC(=O)N2CCC3(C=Cc4ccccc4O3)CC2)o1`, the “% Inhibition” value is on record as -17% and the Z score came to 1.81.
In the same order, the values of `CCc1noc(C)c1COc1cnn(C)c1` are -3% and 0.45.
In the same order, the values of `O=C(COC[C@H]1CCCO1)N1CCC2(CCC(=O)N(Cc3ccccn3)C2)CC1` are 4% and -0.67.
The like results for `CC(C)CCNC(=O)[C@]1(C)Cn2nc(C(=O)NCc3ccccc3F)cc2C(=O)N1C` were, in that order, 15% and -1.76.
Consider `CC1CN(S(=O)(=O)CC2CCOC2)c2ccc(F)cc2O1` (stereo unspecified), for which the “% Inhibition” value was 39% and the Z score is given as -5.6.
With `CNC(=O)c1nc(CN2CCO[C@@H](CCCc3ccccc3)C2)no1`, the “% Inhibition” value is -15% and the Z score was found to be 3.1.
As to `CCCN1CCCn2nc(CNC(=O)Nc3ccc(C)cc3C)cc2C1`, the “% Inhibition” value was -11% and the Z score is 1.62.
`Cc1nnc(-c2cccc(NC(=O)C3CCN(C(=O)C#Cc4ccccc4)CC3)c2)s1`: the “% Inhibition” value is listed as -6% and the Z score is 0.87.
In the same order, the values of `CCOC(=O)[C@H]1CCCN(c2nccn3nc(-c4ccccc4C)cc23)C1` are -5% and 0.68.
For the compound `CC1C(C)N(C(=O)c2cn(C)nn2)C(C)CN1C(=O)OC(C)(C)C` (stereo unspecified), the “% Inhibition” value is -5% and the Z score worked out at 1.04.
With `CCOc1ccccc1CN1C[C@H]2CC[C@@H](C1)N(CC(=O)N(C)C)C2=O`, the “% Inhibition” value is reported as 9% and the Z score is -1.19.
The like results for `CCC[N+](C)(C)C(C)C(OC(C)=O)c1ccccc1` (stereo unspecified) were, in that order, 4% and -0.47.
The like results for `CC(C(=O)Nc1ccc2c(c1)C(O)CC2(C)C)N(C)CC(F)(F)F` (stereo unspecified) were, in that order, -2% and 0.47.
Regarding `CC1CN(C(=O)Nc2ccc(Oc3ccncc3)cc2)CC(C)O1` (stereo unspecified), the “% Inhibition” value is reported as -13% and the Z score is recorded as 1.16.
`O=C(c1nc(=O)[nH]c2ccccc12)N1CCC(c2nccn2CC2CC2)CC1`: the “% Inhibition” value is reported as -8% and the Z score is given as 0.77.
The like results for `CC(=O)Nc1cccc(NC(=O)C2CCN(S(=O)(=O)Cc3ccccc3F)CC2)c1` were, in that order, -6% and 1.17.
In the same order, the values of `CCOCCCNC(=O)N[C@@H](C)CCc1ccc(OC)cc1` are -10% and 0.92.
On to `Cc1[nH]ncc1C(=O)N(Cc1cccnc1)Cc1ccco1`, for which the “% Inhibition” value was -8% and the Z score was 0.66.
Turning to `O=C1CCCN1[C@H]1CCCN(c2nccc3c(=O)[nH]cnc23)CC1`, the “% Inhibition” value is -3% and the Z score was 0.32.
The like results for `O=C1CCC[C@H](C(=O)Nc2cnn(CC(F)(F)F)c2)N1` were, in that order, 31% and -0.52.
Regarding `CN(Cc1ccc2cn[nH]c2c1)[C@H]1CCCN(Cc2ccc3cn[nH]c3c2)CC1`, the “% Inhibition” value was found to be 9% and the Z score is -1.4.
In the same order, the values of `CCO[C@@H](C)C(=O)NCc1sc(C)nc1CC` are -9% and 1.13.
Regarding `COCc1cccc(C(=O)Nc2ccc(-n3ccnc3)cc2)c1`, the “% Inhibition” value is listed as -3% and the Z score came out at 0.34.
The like results for `C[C@@H](NC(=O)c1ccccc1F)c1ccccc1` were, in that order, 42% and -1.57.
For the compound `CNC(=O)CN1CCC(CN(C)c2nnc(C(C)(C)C)s2)CC1`, the “% Inhibition” value is recorded as -4% and the Z score was found to be 0.34.
In the same order, the values of `CC[C@@H](CO)N1CCN(S(=O)(=O)c2cccc(NC(=O)c3oc(C)nc3C)c2)CC1` are 11% and -1.47.
The like results for `O=C(O)[C@@H]1CC2(CCN(C(=O)c3cc(Cl)ccc3F)CC2)CN1` were, in that order, 1% and -0.23.
In the case of `c1ccc(-c2coc(CNCCc3nnc4n3CCC4)c2)cc1`, the “% Inhibition” value is on record as 3% and the Z score was -0.64.
Regarding `CC12CCC(C(=O)Nc3ncc(Cl)cc3Cl)(CC1O)C2(C)C` (stereo unspecified), the “% Inhibition” value is listed as -7% and the Z score is listed as 0.95.
As for `Nc1cc(N2CCC3(CC2)C[C@@H](c2ccccc2)C(=O)N(C2CC2)C3)ncn1`, the “% Inhibition” value was -5% and the Z score stood at 1.14.
In the case of `O=C(CN1C(=O)c2cc(Cl)c(Cl)cc2C1=O)Nc1cccc(S(=O)(=O)N2CCCC2)c1`, the “% Inhibition” value is reported as -13% and the Z score stood at 1.26.
In the same order, the values of `Cc1cnc(C)c(-c2ccc(C(=O)N3CCN(c4cnccn4)CC3)cc2)n1` are -1% and 0.22.
In the same order, the values of `COc1cc(C(=O)NCCNC(=O)c2nc(-c3ccc(F)cc3)no2)cc(OC)c1OC` are -5% and 0.62.
With `FC(F)(F)c1ccccc1C1(NCc2ccc3cn[nH]c3c2)CC1`, the “% Inhibition” value is -8% and the Z score came to 1.05.
The like results for `Cc1cc(F)c(C(=O)NC[C@H](Cc2cnn(C)c2)C(N)=O)cc1F` were, in that order, -7% and 0.72.
As to `CC(C)c1cc(CN2CCC[C@H]2c2nccs2)no1`, the “% Inhibition” value was -6% and the Z score is given as 1.1.
In the same order, the values of `CCC1CCCC(CNCC2(S(C)(=O)=O)CCOCC2)C1` (stereo unspecified) are 5% and -0.44.
In the same order, the values of `Cc1cccc(CN2CCC[C@@](O)(CN3CCN(CC4CC4)CC3)C2=O)c1` are -10% and 1.1.
Regarding `OCCN(CCO)Cc1c[nH]nc1-c1cccc2ccccc12`, the “% Inhibition” value was -4% and the Z score is on record as 0.56.
As for `Cc1ccc(COc2cccc(CNCc3cccnc3)c2)cc1`, the “% Inhibition” value is recorded as 10% and the Z score is on record as -1.43.
The like results for `CCOC1CC(NC(C(N)=O)c2ccccc2)C1(C)C` (stereo unspecified) were, in that order, -16% and 1.58.
In the same order, the values of `O=C(CCC1CCCC1)N1CCC(c2c(CO)cnn2-c2ccccc2)CC1` are -1% and 0.07.

For the origin of these results see ChEMBL document CHEMBL4888484, “Replenishing the malaria drug discovery pipeline: Screening and hit evaluation of the MMV Hit Generation Library 1 (HGL1) against asexual blood stage Plasmodium falciparum ,using a nano luciferase reporter read-out” (2022).
